Source: PMC4336329 (PLoS ONE, 2015)
The campaign covered roughly 310,000 compounds. About 2,200 (0.71%) showed an effect of 50% or more. Effects have a minus sign here. The list shows a part of the results.

Target: human ether-à-go-go-related gene (hERG) potassium channel (human, UniProt Q12809)
Experiment: primary screen, population patch clamp on CHO cells stably expressing hERG

Sequence of human ether-à-go-go-related gene (hERG) potassium channel (Q12809 whole entry, looked up): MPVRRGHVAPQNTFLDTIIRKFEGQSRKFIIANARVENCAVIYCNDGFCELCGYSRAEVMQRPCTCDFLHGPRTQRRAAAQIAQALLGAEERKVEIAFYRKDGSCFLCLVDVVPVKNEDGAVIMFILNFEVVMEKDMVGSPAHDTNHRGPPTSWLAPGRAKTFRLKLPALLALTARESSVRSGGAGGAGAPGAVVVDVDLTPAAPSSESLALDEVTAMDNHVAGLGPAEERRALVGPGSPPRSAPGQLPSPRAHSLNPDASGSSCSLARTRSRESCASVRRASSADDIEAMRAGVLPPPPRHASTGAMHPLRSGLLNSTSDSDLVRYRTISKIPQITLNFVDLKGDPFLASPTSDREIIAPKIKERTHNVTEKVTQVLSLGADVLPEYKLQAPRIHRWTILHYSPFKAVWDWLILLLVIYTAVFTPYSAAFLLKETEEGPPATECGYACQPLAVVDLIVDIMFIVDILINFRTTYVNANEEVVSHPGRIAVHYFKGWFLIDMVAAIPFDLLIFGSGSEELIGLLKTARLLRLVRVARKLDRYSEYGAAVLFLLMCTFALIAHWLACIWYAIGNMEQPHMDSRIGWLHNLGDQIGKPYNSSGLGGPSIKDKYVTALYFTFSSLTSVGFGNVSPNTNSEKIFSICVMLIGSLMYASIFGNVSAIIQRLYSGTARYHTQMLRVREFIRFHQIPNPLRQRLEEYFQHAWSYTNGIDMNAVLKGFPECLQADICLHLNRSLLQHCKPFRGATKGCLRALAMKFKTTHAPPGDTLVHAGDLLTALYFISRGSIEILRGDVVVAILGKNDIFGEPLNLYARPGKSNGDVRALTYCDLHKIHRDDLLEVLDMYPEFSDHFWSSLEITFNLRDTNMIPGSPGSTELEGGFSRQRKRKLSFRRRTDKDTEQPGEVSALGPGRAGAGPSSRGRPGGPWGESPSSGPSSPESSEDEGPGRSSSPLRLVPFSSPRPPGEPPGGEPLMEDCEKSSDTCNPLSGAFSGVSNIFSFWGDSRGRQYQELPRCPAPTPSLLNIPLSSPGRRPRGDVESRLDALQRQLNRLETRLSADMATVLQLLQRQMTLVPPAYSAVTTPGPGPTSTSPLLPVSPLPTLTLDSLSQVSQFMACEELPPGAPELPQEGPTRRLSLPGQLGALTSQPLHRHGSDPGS

Point of comparison: `COc1ccc(Cl)cc1NC(=O)CN(C)C(=O)c1ccc(COc2ccccc2)cc1`, “hERG current change (%, negative = inhibition) at 1uM” value 13.5%. Against it:
- c1ccc2nc(-c3ccc(N4CCOCC4)cc3)ccc2c1 — lower, 10.1%
- Cc1nnc(SCc2cc(=O)[nH]c(/N=C(\N)Nc3ccccc3Sc3ccccc3)n2)s1 — higher, 15.5%
- CCC(=O)c1ccccc1OCCSc1nc(C)cc(=O)[nH]1 — lower, 0.509%
- CCOc1ccc(S(=O)(=O)N2CCCCCC2)cc1 — lower, -1.39%
- Cc1nn(CC(=O)Nc2ccc(N(C)C)cc2)c(C)c1[N+](=O)[O-] — lower, 7.34%
- O=C(NCc1nnc(SCc2ccc(F)cc2)n1-c1ccc(F)cc1)C12CC3CC(CC(C3)C1)C2 — lower, 2.14%
- CC(=O)Nc1ccc(N2CCCCC2)c(C(=O)Nc2cccc(C)c2)c1 — lower, 5.96%
- Cc1ccc(COn2nnc3ccc(S(=O)(=O)N4CCOCC4)cc32)cc1 — lower, -4.65%
- Cc1c(CCC(=O)O)c(=O)oc2cc(OCc3cccc(F)c3)ccc12 — higher, 16.2%
- CN1C(C(=O)Nc2ccccn2)=C(O)c2sccc2S1(=O)=O — lower, 11.3%
- O=c1cc(-c2ccccc2)[nH]c2ccccc12 — lower, -2.63%
- O=c1[nH]cccc1-c1nc2ccccc2n1Cc1cccc(Cl)c1 — lower, 2.24%
- [O-][Cl+3]([O-])([O-])[O-].c1ccc(C[n+]2ccccc2)cc1 — lower, 11.5%
- CN(C(=O)Nc1ccc(Cl)cc1Cl)C1CCCC1 — lower, -1.25%
- Cl.Nc1cc(F)ccc1N1CCCCCC1 — lower, 12.7%
- COc1ccc(-n2c(=S)[nH]c3cc(C(=O)NC4CCCCC4)ccc3c2=O)c(OC)c1 — lower, 1.85%
- O=C(Cc1ccc(F)cc1)N1CCC(CC2CC(c3cccc(Br)c3)=NO2)(C(=O)NCC2CCCCC2)CC1 (stereo not drawn) — lower, 4.44%
- COc1ccc(NC(=O)CCN2C(=O)C3CC=C(Cl)CC3C2=O)cc1 (stereo not drawn) — lower, 8.21%
- CCOC(=O)c1c(C)n(C)c2cc(Br)c(C)cc12 — higher, 16.1%
- O=C(CN1CCOCC1)N1N=C(c2cccs2)CC1c1cccs1 (stereo not drawn) — higher, 14.8%
- CN1CCc2c(C#N)c(N3CCOCC3)nc(NCC3CCCO3)c2C1 (stereo not drawn) — lower, 13.3%
- CCOC(=O)c1cc2cc3ccccc3cc2[nH]1 — lower, -6.48%
- c1cncc(Nc2nc(-c3ccncc3)cs2)c1 — lower, -5.37%
- O=S(=O)(Nc1cccc(-n2cnnn2)c1)c1cnc(Cl)c(Cl)c1 — lower, 6.97%
- O=C(O)CN1CCN(Cc2ccccc2Cl)C1=O — lower, 1.85%
- CC1CC(C)CN(CCCNS(=O)(=O)c2ccc3c(c2)CCN3C(=O)C2CC2)C1 (stereo not drawn) — lower, 8.06%
- Cc1nc([N+](=O)[O-])c(Sc2nc3ccccc3n2C)n1Cc1ccccc1 — lower, -5.26%
- O=C1COc2ccc(C(=O)COC(=O)/C=C/c3cccc(F)c3)cc2N1 — lower, 9.4%
- CCCNC(=O)Cn1c(=O)oc2ccccc21 — lower, -1.14%
- Cc1ccc(NC(=O)c2ccc3c(c2)OCCO3)cc1S(=O)(=O)Nc1cccc(Cl)c1 — lower, 12.3%
- Cc1nc2c(ccc3c([N+](=O)[O-])cccc32)c(C)c1C — higher, 16.7%
- Cc1oc2c(C)c3oc(=O)c(CCC(=O)N4C[C@H]5C[C@@H](C4)c4cccc(=O)n4C5)c(C)c3cc2c1C — lower, 1.88%
- COc1ccccc1CNC(=O)C(NC(=O)c1ccccc1)C(C)C (stereo not drawn) — lower, 10%
- Fc1ccc(/C=N/n2cnn(Cc3ccccc3Cl)c2=S)cc1 — higher, 17%
- O=C(NNC1=Nc2ccccc2SC1)c1ccc(Cl)cc1 — lower, 2.47%
- COc1cccc(-c2cc(C(=O)NCC3CCCO3)on2)c1 (stereo not drawn) — lower, 11.5%
- COCCNC(=S)N1CCc2cc(OC)c(OC)cc2C1COc1ccc(F)cc1 (stereo not drawn) — lower, -1.28%
- COc1ccc(-c2nc3ccccc3nc2-c2ccccc2)cc1 — higher, 18.1%
- Cn1cc(C(CO)Cc2ccccc2)c2ccccc21 (stereo not drawn) — lower, 6.21%
- CCN(CC)CCCNC(=O)Cn1cnc2ccc(S(=O)(=O)N3CCC(C)CC3)cc2c1=O — lower, 5.39%
- CCc1nnc(NS(=O)(=O)c2ccc(NC(=O)c3ccccc3OC)cc2)s1 — lower, 6.72%
- Cc1ccc(CNc2ccc(N3C(=O)CC(C)C3=O)cc2[N+](=O)[O-])cc1 (stereo not drawn) — lower, 10.1%
- Cc1nc2ccccc2c(=O)n1-c1ccc(NS(=O)(=O)c2ccccc2)cc1 — lower, -5.12%
- COc1ccc(F)cc1S(=O)(=O)NCC(=O)NCc1cc(=O)n(C)c(=O)n1C — higher, 34.4%
